In publication PMC4336329 (PLoS ONE, 2015):
In all, about 310,000 compounds went through this assay and about 14,000 (4.5%) showed an effect of 50% or more. Effects have a minus sign here. This is one part of the list.

Target: human ether-à-go-go-related gene (hERG) potassium channel (human, UniProt Q12809)
Experiment: primary screen, population patch clamp on CHO cells stably expressing hERG
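Note: peak tail current of the secondary pulse compared with the same well before compound.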

Chain of human ether-à-go-go-related gene (hERG) potassium channel (Q12809 whole entry, looked up): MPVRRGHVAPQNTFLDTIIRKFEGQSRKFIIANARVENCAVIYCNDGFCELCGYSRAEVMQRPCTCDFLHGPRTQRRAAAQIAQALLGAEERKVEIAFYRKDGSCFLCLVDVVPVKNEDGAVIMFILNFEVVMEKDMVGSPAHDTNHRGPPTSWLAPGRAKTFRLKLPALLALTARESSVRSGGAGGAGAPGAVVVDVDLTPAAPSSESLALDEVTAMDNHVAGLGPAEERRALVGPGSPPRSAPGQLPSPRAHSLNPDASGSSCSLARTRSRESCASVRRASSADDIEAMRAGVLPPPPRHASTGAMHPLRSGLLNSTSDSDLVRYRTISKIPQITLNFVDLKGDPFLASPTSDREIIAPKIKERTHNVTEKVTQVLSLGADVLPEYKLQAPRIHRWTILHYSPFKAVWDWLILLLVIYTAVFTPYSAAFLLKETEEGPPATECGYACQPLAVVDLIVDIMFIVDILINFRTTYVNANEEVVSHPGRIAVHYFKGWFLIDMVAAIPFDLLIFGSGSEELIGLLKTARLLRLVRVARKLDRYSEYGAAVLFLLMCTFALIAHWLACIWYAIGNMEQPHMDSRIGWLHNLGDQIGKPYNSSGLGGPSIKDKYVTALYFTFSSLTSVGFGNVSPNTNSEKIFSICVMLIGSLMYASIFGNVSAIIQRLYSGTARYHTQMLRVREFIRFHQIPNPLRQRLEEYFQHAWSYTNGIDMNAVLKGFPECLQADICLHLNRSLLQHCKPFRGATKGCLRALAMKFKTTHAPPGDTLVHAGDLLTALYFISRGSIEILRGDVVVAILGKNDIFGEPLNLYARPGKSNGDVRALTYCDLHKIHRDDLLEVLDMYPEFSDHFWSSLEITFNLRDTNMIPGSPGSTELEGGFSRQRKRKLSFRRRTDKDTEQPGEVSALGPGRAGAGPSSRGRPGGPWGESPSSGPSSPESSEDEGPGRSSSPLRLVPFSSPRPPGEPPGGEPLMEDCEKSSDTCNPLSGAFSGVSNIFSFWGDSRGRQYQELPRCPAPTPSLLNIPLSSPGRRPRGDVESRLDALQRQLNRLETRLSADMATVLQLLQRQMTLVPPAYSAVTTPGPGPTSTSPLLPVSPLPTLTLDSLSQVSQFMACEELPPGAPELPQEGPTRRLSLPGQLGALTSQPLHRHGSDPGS

SMILES	hERG current change (%, negative = inhibition) at 10uM [%]
O=[N+]([O-])c1cc(/C=N/O)ccc1SCc1ccccc1	11.6
Nc1nc(COC(=O)CCC(=O)c2ccc(Cl)cc2)nc(Nc2ccccc2)n1	6.39
CCC(C)C1NC(=S)N(C2CCCCC2)C1=O (stereo not shown)	6.18
CCC(=O)c1ccc(OCC(O)Cn2nc(C)cc2C)cc1 (stereo not shown)	-7.44
NS(=O)(=O)c1ccc(NC(=O)c2ccc(COc3ccccc3)o2)cc1	19.4
COc1ccc2[nH]c(=O)c(CN(Cc3ccccc3)C(=S)NCC3CCCO3)cc2c1 (stereo not shown)	11.8
COc1ccc(C(=O)CC2(C(=O)O)CCCCC2)cc1	9.45
O=C(OCc1ccc(Br)cc1F)c1cc2ccccc2oc1=O	-1.96
COc1ccccc1C(=O)Nc1cccc(C(=O)c2ccccc2)c1	-33.5
Cc1sc2ncnc(SCC(=O)N3CCCC3=O)c2c1C	2.84
Cc1ccc(CNC(=O)CSc2nnc3c(n2)[nH]c2ccc(F)cc23)cc1	13.1
CCOc1ccc(OCCC(=O)OCC(=O)N2CCN(S(=O)(=O)c3ccc(Cl)cc3)CC2)cc1	-38.9
COc1ccc2cc(OCC(=O)NNC(=O)Nc3ccc(F)cc3)ccc2c1	17.3
COc1cc(-c2noc(CCCC(=O)NCc3ccccc3)n2)cc(OC)c1OC	3.99
CCc1ccc(N(CC(=O)Nc2ccccc2C(=O)N2CCCC2)S(C)(=O)=O)cc1	-10.6
CCOC(=O)C1=C(C)n2c(s/c(=C/c3cccc([N+](=O)[O-])c3)c2=O)=NC1c1ccc(O)c(OC)c1 (stereo not shown)	-10.7
COc1cc(-n2c(=O)c3ccccc3n(CC(=O)c3ccc(F)cc3)c2=O)cc(OC)c1OC	21
CCOCCCNc1ncc2c(n1)CC(c1ccc(C)cc1)CC2=O (stereo not shown)	10.2
COCCNC(=O)c1cccc(OC2CCN(Cc3ccccc3C)CC2)c1	6.34
Cc1cc(C)n2nc(SCC(=O)N3CCN(c4ccc(F)cc4)CC3)nc2n1	-33
Oc1c(C(c2ccccc2)N2CCc3ccccc3C2)sc2ncnn12 (stereo not shown)	5.98
O=C(NCCCN1CCN(c2ccccc2F)CC1)Nc1ccccc1[N+](=O)[O-]	-72.1
Cc1cc(Cl)ccc1OCC(=O)NNC(=O)C1CCCO1 (stereo not shown)	14.6
CC(NC(=O)Cc1cccs1)c1ccc2c(c1)OCO2 (stereo not shown)	-1
CN(C(=O)COC(=O)c1ccc(C(C)(C)C)cc1)C1CCS(=O)(=O)C1 (stereo not shown)	-22.7
O=C(Cn1nnc2ccccc21)OCC(=O)c1ccc(Cl)c(Cl)c1	1.31
CC1CCN(CCCNC(=O)C2CCN(S(=O)(=O)N3CCCCC3)CC2)CC1	-2.08
CCOC(=O)c1c(N)c2cc([N+](=O)[O-])ccc2n1C	18.1

SMILES	hERG current change (%, negative = inhibition) at 10uM [%]
O=C(CCOc1ccccc1)Nc1ccnn1C1CCN(CCc2ccccc2)CC1	-65.1
CCOc1ccc(N/C(=N/c2nc(C)cc(C)n2)NC(C)=O)cc1	-12.2
Cc1cccc(C)c1N(CC(=O)N1CCN(c2ccccc2F)CC1)S(C)(=O)=O	-0.334
COc1cccc(C(=O)C2CCCN(C(=O)CCc3scnc3C)C2)c1 (stereo not shown)	-12.7
O=C(NCc1ccco1)Nc1cccs1	6.01
O=C(C1CC1)N1N=C(c2ccc(Cl)cc2)CC1(O)C(F)(F)F (stereo not shown)	-0.113
CN(CC(=O)Nc1cccc(F)c1)C(=O)Cn1cnc2c1c(=O)n(C)c(=O)n2C	-4.34
Cc1ccc(S(=O)(=O)Nc2cccc(-c3ccc4nnc(C)n4n3)c2)s1	-1.27
Cl.c1ccc(COc2ccc(CNCc3cccnc3)cc2)cc1	-12.8
COc1ccc(/C=C2\Oc3cc(OCC(=O)N4CCC[C@H]4C(=O)O)ccc3C2=O)cc1OC	-3.38
CCN(CC)S(=O)(=O)c1ccc2c(c1)c(=O)c(C(=O)NCCc1ccccc1)cn2C	-0.204
COc1ccc(S(=O)(=O)NCc2ccccn2)c(C)c1C	0.26
Cc1ccc(N=Cc2c(O)c3ccccc3oc2=O)cc1F	15.5
COc1cc([N+](=O)[O-])ccc1-c1ccc(C(=O)Nc2ccc(NC(C)=O)cc2)o1	-3.8
CCOC(=O)c1[nH]c(C)c(C(=O)NCc2ccco2)c1C	-4.63
CCOC(=O)C1=C(C)NC2=C(C(=O)C(C(=O)OCC)C(c3ccccc3OC)C2)C1c1ccccn1 (stereo not shown)	-5.07
O=C(OCC(=O)N1CCc2ccccc21)c1c2c(nc3ccccc13)CCCCC2	8.66
Cc1cccc2cc(C#N)c(NCc3ccccc3)nc12	16.6
Nc1nnc(SCC(=O)Nc2cccc(S(=O)(=O)N3CCCCC3)c2)s1	-12.8
COc1ccc(Cl)c2sc(N3CCN(C(C)=O)CC3)nc12	-20.4
O=C(O)CCc1ccc(-c2ccc(Br)cc2)n1-c1cccc(O)c1	7.19
COc1ccccc1N1CCN(C(=O)c2ccc3c(=O)n4c(nc3c2)CCCCC4)CC1.Cl	-5.46
O=S(=O)(c1ccccc1)N1CCN(C(=S)NCc2ccccc2)CC1	-50.3
Cc1cc(C)n(Cc2cccc(F)c2)c(=O)c1C#N	-2.93
Cc1ccccc1/C(N)=N/OC(=O)N1c2ccccc2Sc2ccccc21	11.6
COc1ccc(NC(=O)CSc2nc(SC)ns2)cc1	10.5
Cc1nn(-c2ccccc2)c(Cl)c1/C=N/Nc1nc2ccccc2n1C	-3.1
